Data as given in PubChem BioAssay AID1508623 (National Center for Advancing Translational Sciences (NCATS), 2021).
The campaign covered roughly 48,000 compounds. About 450 (0.94%) were called active. The shares of active, inactive and inconclusive entries below differ from those in the screen. Calls come from the whole dose curve; as a rule, active = well fitted inhibition curve with a large enough effect; inconclusive = small, poorly fitted or top-dose-only effect; inactive = no such curve, though single readings can be large or run the other way. Potencies of inconclusive entries are doubtful fits and often do not repeat.

assay: Primary qHTS for Identification of Small Molecule Inhibitors of Huntingtin Promoter Activity; conditions: HEK293 HTT promoter firefly luciferase reporter (activity 0% = vehicle and -100% = no light), 24 h; series mostly up to 57.5 µM; note: nearly all actives have a fitted effect of over 50% in size
Procedure, shortened: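 HEK293 luciferase promoter-reporter cells (2,500/well) plated 24 h, then compounds added at up to 57.5 uM final for 24 h at 37 °C. Firefly luminescence by Dual-Glo, normalized to vehicle (0%) and zero RLU (-100%).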
Potency is the fitted concentration of half-maximal effect; tags give direction and shape of the fitted curve.

| Structure (SMILES) | Potency |
| --- | --- |
| CCc1c(C)sc2c1CCN(Cc1ccccc1F)C2c1ccccc1 (stereo not drawn) | inconclusive: 17.8 µM [inhibitor, partial curve, poor fit] |
| CCOc1ccc(-c2c(C)nn3c(C)c(C(=O)NCCc4ccc(C)cc4)cnc23)cc1OCC | inconclusive: 22.4 µM [inhibitor, single point] |
| O=C(NCCSc1c[nH]c2ccccc12)c1ccccc1Cl | inactive |
| COc1ccc(NC(=O)C2CCN(S(=O)(=O)c3c(C)noc3/C=C/c3cccs3)CC2)cc1Cl | inconclusive: 20 µM [inhibitor, single point] |
| COc1ccc2[nH]cc(CCN=C(NC(=O)c3ccccc3OC)Nc3nc(C)cc(C)n3)c2c1 | inconclusive: 39.8 µM [inhibitor, partial curve, poor fit] |
| Cc1ccc(NC(=O)c2ccc(NC(=O)CCS(=O)(=O)c3cccs3)cc2)cc1F | inconclusive: 20 µM [inhibitor, partial curve, poor fit] |
| COc1cccc(Cn2cc(C(=O)c3ccc(Cl)cc3)c(=O)c3ccccc32)c1 | inconclusive: 31.6 µM [inhibitor, single point] |
| Cc1ccccc1Nc1c(-c2ccc(N3CCOCC3)cc2)nc2ccc(Br)cn12 | inactive |
| Cc1ccc(CNC(=O)C(=O)NCC(c2ccc3c(c2)OCO3)N2CCOCC2)cc1 (stereo not drawn) | inactive |
| COc1ccccc1N1CCN(C(=O)C2CCCN(S(=O)(=O)c3ccc4c(c3)CCCN4C(C)=O)C2)CC1 (stereo not drawn) | inconclusive: 7.94 µM [inhibitor, partial curve] |
| Cc1ccc(Nc2ncnc3sc4c(c23)CCC(C)C4)cc1C (stereo not drawn) | inactive |
| OCc1cnc(SCc2ccccc2F)n1Cc1ccc(F)cc1 | inactive |
| CN(C(Cc1ccc(OS(=O)(=O)c2cccc3cnccc23)cc1)C(=O)N1CCN(c2ccccc2)CC1)S(=O)(=O)c1cccc2cnccc12 (stereo not drawn) | inconclusive: 30.6 µM [inhibitor, partial curve, poor fit] |
| CCC(=O)N1CCc2cc(S(=O)(=O)NCCC(=O)Nc3ccc(N(CC)CC)cc3C)ccc21 | inconclusive: 10 µM [inhibitor, single point] |
| CCN(CC)S(=O)(=O)c1ccc(C(=O)NCCSc2c(-c3ccccc3)[nH]c3ccccc23)cc1 | inconclusive: 25.1 µM [inhibitor, partial curve, poor fit] |
| O=C(CSc1nc(-c2cccc(F)c2)[nH]c1-c1ccccc1)Nc1ccc2c(c1)OCO2 | inconclusive: 25.1 µM [inhibitor, partial curve] |
| COc1cc(NC(=O)c2cc3cc4ccc(C)cc4nc3o2)cc(OC)c1OC | inconclusive: 2.51 µM [inhibitor, full curve] |
| CCc1ccccc1N(C)C(=O)C1CCCN(c2ncnc3c2nc2n3CCCCC2)C1 (stereo not drawn) | inconclusive: 22.4 µM [inhibitor, partial curve, poor fit] |
| O=C1CN(C(=O)c2ccc(S(=O)(=O)N3CCCC3)cc2)C(c2ccccc2)c2cc(F)ccc2N1 (stereo not drawn) | inactive |
| Cc1nc(-c2ccc(F)cc2)sc1CCNC(=O)Cc1ccc(F)cc1 | inconclusive: 35.5 µM [inhibitor, partial curve, poor fit] |

| Structure (SMILES) | Potency |
| --- | --- |
| CC[C@H](CC#N)OC(=O)N[C@@H](C)c1cccc(NC(=O)Nc2ccc(-c3cnco3)c(OC)c2)c1 | inconclusive: 6.11 µM [inhibitor, partial curve] |
| C#Cc1cccc(Nc2ncnc3cc(OCCOC)c(OCCO)cc23)c1 | inconclusive: 15.3 µM [inhibitor, partial curve] |
| CCN1CCN(c2oc(-c3ccc(COc4ccccc4C)o3)nc2C#N)CC1 | inconclusive: 22.4 µM [inhibitor, partial curve, poor fit] |
| Cc1noc(C)c1S(=O)(=O)N(CC(=O)Nc1ccc(F)cc1F)c1ccc(C(C)C)cc1 | inconclusive: 35.5 µM [inhibitor, single point] |
| Oc1c(C(Nc2ccccn2)c2ccccc2F)ccc2cccnc12 (stereo not drawn) | inconclusive: 25.1 µM [inhibitor, single point] |
| COc1ccc(Cn2ccc3nc(C)c(C(=O)Nc4cccc(SC)c4)cc3c2=O)cc1 | inconclusive: 31.6 µM [inhibitor, single point] |
| CCCN(CCC)CCCNC(=O)c1cc2c(=O)n(C)c3ccccc3c2s1 | inactive |
| COc1ccc(C(Nc2ccccn2)c2ccc3ccc(C)nc3c2O)cc1C (stereo not drawn) | inconclusive: 39.8 µM [inhibitor, single point] |
| COc1ccc(Cl)cc1NC(=O)CSC1=Nc2ccccc2C2=NC(CCC(=O)NCc3ccco3)C(=O)N12 (stereo not drawn) | inactive |
| Cc1ccc(Cn2c(CCNC(=O)c3cccc(C)c3)nc3ccccc32)cc1 | inconclusive: 31.6 µM [inhibitor, single point] |
| Cc1cccc(NC(=O)CN2C(=O)C3(SCC(=O)N3c3ccccc3)c3ccccc32)c1 (stereo not drawn) | inconclusive: 20 µM [inhibitor, partial curve] |
| Cc1ccc(S(=O)(=O)N2CCN(Cc3ccccc3Cl)CC2)cc1 | inconclusive: 31.6 µM [inhibitor, single point] |
| O=C(NCCc1ccccc1)c1ccc2c(c1)N(Cc1ccc(F)cc1)C(=O)CS2 | inconclusive: 39.8 µM [inhibitor, single point] |
| Cc1ccc(CCNS(=O)(=O)c2ccc3c(c2)C(C(C)C)C(=O)N3)cc1 (stereo not drawn) | inconclusive: 25.1 µM [inhibitor, single point] |
| CC(=O)N1c2ccccc2C(=O)C1N1CCN(c2cccc(Cl)c2)CC1 (stereo not drawn) | inconclusive: 14.1 µM [inhibitor, partial curve] |
| CCNC(=O)[C@@H]1CCCN1C(=O)[C@H](CCCN=C(N)N)NC(=O)[C@H](CC(C)C)NC(=O)CNC(=O)[C@H](Cc1ccc(O)cc1)NC(=O)[C@H](CO)NC(=O)[C@H](Cc1c[nH]c2ccccc12)NC(=O)[C@H](Cc1cnc[nH]1)NC(=O)[C@@H]1CCC(=O)N1 | inactive |
| CCOC(=O)N1CCC(NC(=O)c2c(C)nn(-c3cccc(C)c3)c2-n2cccc2)CC1 | inconclusive: 11.2 µM [inhibitor, partial curve, poor fit] |
| COc1ccc(-n2nc3c(N4CCC(C(=O)NCc5ccccc5C)CC4)nnc(C)c3c2C)cc1 | inconclusive: 25.1 µM [inhibitor, single point] |
| CC(C)(C)C(=O)NCCc1nc2ccccc2n1CCCCOc1ccccc1 | inconclusive: 22.4 µM [inhibitor, single point] |
| O=S(=O)(NCc1ccc(F)cc1)c1ccc(N2CCCCS2(=O)=O)cc1 | inconclusive: 15.8 µM [inhibitor, partial curve, poor fit] |

| Structure (SMILES) | Potency |
| --- | --- |
| CCOc1ccccc1CNCCCSc1nnnn1C | inactive |
| CCCCN1CC(c2nc3ccccc3n2CCCCOc2ccccc2C)CC1=O (stereo not drawn) | inconclusive: 28.2 µM [inhibitor, partial curve, poor fit] |
| O=C(c1ccc2c(c1)N(Cc1ccc(Cl)cc1)C(=O)c1ccccc1S2(=O)=O)N1CCCCCC1 | inconclusive: 35.5 µM [inhibitor, single point] |
| Cc1cccc(C)c1Nc1c(-c2ccccc2Cl)nc2cnccn12 | inconclusive: 28.2 µM [inhibitor, single point] |
| Cc1ccc(-c2onc(C)c2C)cc1S(=O)(=O)NCc1cccs1 | inconclusive: 28.2 µM [inhibitor, single point] |
| Cc1ccc(N2C(=O)C(CC(=O)Nc3ccc(F)cc3)N(CCC3=CCCCC3)C2=O)cc1 (stereo not drawn) | inconclusive: 28.2 µM [inhibitor, single point] |
| COc1cc(OC)c(NS(=O)(=O)c2cc3c(cc2C)NC(=O)CO3)cc1Cl | inconclusive: 17.8 µM [inhibitor, partial curve, poor fit] |
| CC(=O)c1ccc(N2CCN(C(=O)C3CCN(S(=O)(=O)c4ccc(Br)s4)CC3)CC2)cc1 | inconclusive: 31.6 µM [inhibitor, partial curve, poor fit] |
| CCCCn1c(=O)n(Cc2ccccc2F)c(=O)c2[nH]c(Cc3ccc(NC(C)=O)cc3)nc21 | inconclusive: 30.6 µM [inhibitor, single point] |
| Nc1ccc(-c2ccc3ncc4ccc(=O)n(-c5cccc(C(F)(F)F)c5)c4c3c2)cn1 | inconclusive: 0.0043 µM [inhibitor, full curve] |
| CCOC(=O)c1c(C)[nH]c(C)c1S(=O)(=O)N1CCC(C(=O)N2CCN(c3cccc(C)c3)C(C)C2)CC1 (stereo not drawn) | inconclusive: 22.4 µM [inhibitor, partial curve, poor fit] |
| CCOC(=O)c1ccc(CN(Cc2ccc(F)cc2)S(=O)(=O)c2ccc(F)cc2)cc1 | inconclusive: 22.4 µM [inhibitor, single point] |
| Cc1ccc(C)c(NC(=O)Nc2nnc(N(CC(C)C)CC(C)C)s2)c1 | inconclusive: 28.2 µM [inhibitor, single point] |
| Cc1ccccc1N1CCN(CCc2nnc3n2CCCC3)CC1 | inactive |
| CSc1ccc(CNC(=O)CCn2ccc3cc(S(=O)(=O)N4CCC(C)CC4)ccc32)cc1 | inconclusive: 39.8 µM [inhibitor, single point] |
| CC1=C(c2ccc(C)cc2)S(=O)(=O)N(Cc2ccc(C(=O)NCc3cccc(C)c3)cc2)C1=O | inconclusive: 25.1 µM [inhibitor, single point] |
| COc1ccccc1CNS(=O)(=O)c1ccc2[nH]c3c(c2c1)CCCCC3 | inconclusive: 20 µM [inhibitor, partial curve, poor fit] |
| COc1ccc(CCNC(=O)CN(c2ccccc2OC)S(=O)(=O)c2ccc(C)cc2)cc1 | inconclusive: 35.5 µM [inhibitor, partial curve, poor fit] |
